# Measured values as given in the supplement of paper PMC7826260.
# This is one part of the list. Each Rep nickase domain was tested in vitro on the same pool of single strands at 3 µM enzyme and 37 °C for 1 h; the strands have 90 letters, of which the middle is given. The score is log2 (uncut reads / reads without enzyme); the lower, the more was cut; hits are not called. Shares of all reads are compared; values above 0 arise when much of the pool is cut.
# Experiments:
# Experiment in all cases: uncleaved DNA left, log2 of reads against the no-enzyme library (log2 ratio); higher = less cleavage (more negative = more Rep cleavage of the k-mer); sequences stand for … in CTCGTCCG…ACCGGAGA
# [1] = test system: T1, Rep nickase domain of Muscovy duck circovirus
# T1 sequence (residues 1-111 of Rep, tag left off): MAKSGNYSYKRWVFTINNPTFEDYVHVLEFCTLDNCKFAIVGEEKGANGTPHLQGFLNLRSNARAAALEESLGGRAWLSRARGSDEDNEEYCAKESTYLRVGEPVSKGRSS
# Description: (§1)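 A pool of 90-nt single-stranded DNAs with seven random bases just before the constant AC of the nick site (name = the seven bases) was cut by 3 µM recombinant His6-SUMO-tagged Rep nickase domain (300 nM DNA, 50 mM HEPES pH 8.0, 50 mM NaCl, 1 mM MnCl2, 1 h, 37 °C, three replicates). Uncut DNA was amplified and sequenced.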
# [2] = test system: T2, Rep nickase domain of banana bunchy top virus
# T2 sequence (residues 1-94 of Rep, tag left off): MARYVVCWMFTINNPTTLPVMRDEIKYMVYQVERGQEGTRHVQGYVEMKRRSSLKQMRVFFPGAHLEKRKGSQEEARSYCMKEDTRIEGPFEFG
# Description: as §1
# [3] = test system: T3, Rep nickase domain of cabbage leaf curl virus
# T3 sequence (residues 1-116 of Rep, tag left off): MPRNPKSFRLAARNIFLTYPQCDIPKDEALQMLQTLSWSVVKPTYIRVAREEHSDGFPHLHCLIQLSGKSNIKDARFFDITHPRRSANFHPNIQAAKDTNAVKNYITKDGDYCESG
# Description: as §1
# [4] = test system: T4, Rep nickase domain of chickpea chlorotic dwarf virus
# T4 sequence (residues 1-124 of Rep, tag left off): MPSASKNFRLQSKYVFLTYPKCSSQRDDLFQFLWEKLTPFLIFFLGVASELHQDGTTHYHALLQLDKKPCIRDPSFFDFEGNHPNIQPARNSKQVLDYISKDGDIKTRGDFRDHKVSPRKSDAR
# Description: as §1
# [5] = test system: T5, Rep nickase domain of faba bean necrotic yellows virus
# T5 sequence (residues 1-98 of Rep, tag left off): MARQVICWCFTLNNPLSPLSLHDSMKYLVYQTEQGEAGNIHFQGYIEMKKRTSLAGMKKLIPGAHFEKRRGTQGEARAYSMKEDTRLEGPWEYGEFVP
# Description: as §1
# [6] = test system: T6, Rep nickase domain of maize striate mosaic virus
# T6 sequence (residues 1-117 of Rep, tag left off): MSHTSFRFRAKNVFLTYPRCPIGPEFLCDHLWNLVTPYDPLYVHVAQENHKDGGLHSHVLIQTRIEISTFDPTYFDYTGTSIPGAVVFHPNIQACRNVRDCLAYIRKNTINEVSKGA
# Description: as §1
# [7] = test system: T7, Rep nickase domain of porcine circovirus 2
# T7 sequence (residues 2-116 of Rep, tag left off): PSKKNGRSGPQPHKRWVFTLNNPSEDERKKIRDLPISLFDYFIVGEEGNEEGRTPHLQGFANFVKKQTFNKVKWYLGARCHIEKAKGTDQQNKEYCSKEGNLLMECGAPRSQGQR
# Description: as §1
# [8] = test system: T8, Rep nickase domain of tomato golden mosaic virus
# T8 sequence (residues 1-124 of Rep, tag left off): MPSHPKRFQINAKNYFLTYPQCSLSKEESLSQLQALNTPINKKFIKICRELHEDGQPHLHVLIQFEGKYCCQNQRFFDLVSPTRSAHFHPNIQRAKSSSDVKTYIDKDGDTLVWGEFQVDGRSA
# Description: as §1
# [9] = test system: T9, Rep nickase domain of tomato yellow leaf curl virus
# T9 sequence (residues 1-136 of Rep, tag left off): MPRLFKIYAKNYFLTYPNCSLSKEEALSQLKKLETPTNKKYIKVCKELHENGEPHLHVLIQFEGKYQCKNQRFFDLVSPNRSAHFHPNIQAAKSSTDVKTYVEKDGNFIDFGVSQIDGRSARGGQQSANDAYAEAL
# Description: as §1
# [10] = test system: T10, Rep nickase domain of wheat dwarf virus
# T10 sequence (residues 1-137 of Rep, tag left off): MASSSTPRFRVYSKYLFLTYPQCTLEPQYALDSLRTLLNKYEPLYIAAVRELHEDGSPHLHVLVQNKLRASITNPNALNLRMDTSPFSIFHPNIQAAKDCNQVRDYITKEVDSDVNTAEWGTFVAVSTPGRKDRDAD
# Description: as §1
Sequence,uncleaved DNA left (log2) [1],uncleaved DNA left (log2) [2],uncleaved DNA left (log2) [3],uncleaved DNA left (log2) [4],uncleaved DNA left (log2) [5],uncleaved DNA left (log2) [6],uncleaved DNA left (log2) [7],uncleaved DNA left (log2) [8],uncleaved DNA left (log2) [9],uncleaved DNA left (log2) [10]
GAGGAAT,0.063,0.155,0.797,1.82,0.0243,2.12,0.148,0.182,0.0272,0.23
TTCTCAT,-0.0972,-0.13,-0.00703,-0.632,-0.16,-0.199,-0.69,-0.159,-0.0892,-0.0417
AAGATGC,0.0469,0.06,-0.164,-0.1,0.144,-0.687,0.167,0.0654,-0.00398,0.0172
AGGCTGG,0.0625,0.0428,0.223,0.91,-0.079,0.999,0.344,0.0703,-0.121,0.0826
AGGTCAG,0.109,0.151,0.0873,0.843,0.0816,0.698,0.219,0.13,0.169,0.087
GAACCGA,0.0278,0.0434,0.137,-0.072,0.0607,-0.0524,0.0396,0.0471,0.0168,0.178
TATAGAG,0.105,0.0061,-0.463,-0.561,0.192,-0.941,0.12,0.0682,0.0538,0.12
TAGCTTA,-0.0694,-0.0927,-0.419,-2.26,-0.0398,-0.301,-2.12,-0.132,-0.0151,-0.164
ACCCGCT,-0.217,-0.221,-0.672,-1.43,-0.138,-1.02,-0.108,-0.191,-0.202,-0.261
TAGATCT,-0.0653,-1.82,-2.1,-2.72,-1.38,-0.341,-3.65,-0.203,-0.028,-0.208
GTATTTC,-0.123,0.0176,0.28,0.849,-0.0172,1.6,0.0368,0.0529,0.0921,0.0609
GCTATAC,-0.0226,0.041,0.183,0.229,0.059,-0.0419,0.0856,-0.0264,-0.00723,-0.042
TGTAGGG,0.114,0.116,0.255,0.526,0.0234,0.102,0.172,0.173,-0.00892,-0.0813
AGGGGGT,0.0935,0.128,0.332,1.45,-0.0391,1.7,0.177,0.136,-0.0846,0.0868
TACTATC,-0.177,-0.115,-0.555,-1.67,-0.101,-0.595,-3.06,-0.0836,0.107,0.036
